Laboratory results: patent US4649911A, “Small particle aerosol generator for treatment of respiratory disease including the lungs” (Baylor College of Medicine, priority 1986, dated 1987)

What was measured:
[1] = test system: influenza B; details: in vivo; cited from earlier work
[2] = test system: influenza A; details: oral route; cited from earlier work
[3] = test system: influenza A
[4] = test system: influenza A and B; details: mice; aerosol; treatment delayed as long as five days after inoculation; cited from earlier work
[5] = mouse, in vivo; cited from earlier work
[6] = test system: influenza A/England/333/80 (H1N1); assay type: in vivo, human
[7] = test system: influenza A/Brazil/11/78 (H1N1); test: Hemagglutination-inhibition antibody response, H1N1 virus (Example 1); assay type: in vivo, human; details: treated versus control, P=0.084
[8] = test system: influenza A/Bangkok/79(H3N2); assay type: in vivo, human
[9] = test system: influenza A/Bangkok/1/79 (H3N2); test: Hemagglutination-inhibition antibody response, H3N2 virus (Example 1); assay type: in vivo, human; details: in convalescence, from 1:14 mean acute titer
[10] = not given; remark: listed apart in the source
[11] = test system: influenza B virus; assay type: in vivo, human
[12] = test system: influenza A/England/333/80 (H1N1) virus; test: Virus titration in MDCK cells of virus added to nasal wash containing ribavirin; assay type: cell-based
[13] = test system: influenza A/England/333/80 (H1N1) virus
[14] = test system: influenza; details: oral route; under some circumstances, with inconsistencies; cited from earlier work
[15] = not given; remark: listed apart in the source

**Q.** What does the source list for `NC12CC3CC(CC(C3)C1)C2` [Amantadine, amantadine]?
**A.** effectiveness in influenza B infection [1]: not effective; effect on virus shedding [2]: little effect on virus shedding; effectiveness in cases with pulmonary complications [2]: not been very effective; therapeutic effect ([3]; […], three patients): apparent therapeutic effect; tolerance ([3]; human, in vivo): good tolerance; therapeutic effect when treatment delayed [4]: substantial therapeutic effect; estimated dosages in mice relative to man [5]: four-fold

**Q.** For `NC(=O)c1ncn([C@@H]2O[C@H](CO)[C@@H](O)[C@H]2O)n1` [ribavirin], which “effectiveness and safety in influenza A/England/333/80 (H1N1) infection” value ([6]; Example 1, conclusion) is on record?
**A.** Its value is “demonstrates the effectiveness and safety”.

**Q.** What about the “systemic illness, improvement” value ([6]; by next morning, less than 24 hours, P=0.004) of the same compound?
**A.** The value was “improved greatly”.

**Q.** And the “local findings of rhinitis, pharyngitis and tracheobronchitis” value ([6]; day 2, less than 48 hours after admission)?
**A.** The value was “only a trend of less illness”.

**Q.** What about the “Mean hours from admission to sustained afebrile state (37.4° C.)” value ([6]; treated N=14, control 38.1) of the same compound?
**A.** Its value is 22.8 h.

**Q.** What about the “Mean Maximum Daily Temperature” value ([6]; treated, calendar day 0 (essentially pretreatment), N=14, control 39.2, NS) of the same compound?
**A.** The value was 39.4 °C.

**Q.** What about the “Systemic Illness, mean score” value ([6]; treated, calendar day 0, physician score 0 to 3+, N=14, control 2.56, NS) of the same compound?
**A.** Its value is 2.64.

**Q.** And the “Rhinitis, pharyngitis, tracheobronchitis, mean score” value (“Rhinitis, pharyngitis … mean score” for short) ([6]; treated, calendar day 0, score 0 to 3+, N=14, control 1.49, NS)?
**A.** Its value is 1.52.

**Q.** What about the “Mean Maximum Daily Temperature” value ([6]; treated, calendar day 1, N=14, control 38.6, NS) of the same compound?
**A.** Its value is 38.6 °C.

**Q.** What about the “Rhinitis, pharyngitis … mean score” value ([6]; treated, calendar day 1, score 0 to 3+, N=14, control 1.31, NS) of the same compound?
**A.** Its value is 1.31.

**Q.** What about the “Systemic Illness, mean score” value ([6]; treated, calendar day 1, score 0 to 3+, N=14, control 2.18, P .004) of the same compound?
**A.** The value was 1.50.

**Q.** What about the “Mean Maximum Daily Temperature” value ([6]; treated, calendar day 2, N=13, control 37.4, one-tailed t-statistic .003) of the same compound?
**A.** Its value is 36.9 °C.

**Q.** What about the “Rhinitis, pharyngitis … mean score” value ([6]; treated, calendar day 2, score 0 to 3+, N=12, control 1.14, P .07) of the same compound?
**A.** Its value is 0.77.

**Q.** And the “Systemic Illness, mean score” value ([6]; treated, calendar day 2, score 0 to 3+, N=12, control 1.38, P .07)?
**A.** Its value is 1.0.

**Q.** And the “mean virus titer (virus shedding, nasal wash)” value ([6]; treated, highly significant at 18 hours after admission)?
**A.** The value was “rapid reduction in mean virus titer”.

**Q.** And the serologic response [7]?
**A.** The serologic response was “trend of greater serologic response”.

**Q.** And the “hematologic and clinical chemical tests” value (Example 4)?
**A.** The value was “no toxicity”.

**Q.** What about the tolerance (Example 4) of the same compound?
**A.** Its tolerance is “well tolerated”.

**Q.** What about the “estimated dose of ribavirin aerosol retained” value (human, in vivo) of the same compound?
**A.** The value was “about 2 g”.

**Q.** And the “recovery from severe influenza pneumonia and acute myocardial infarction” value ([8]; Example 2, conclusion)?
**A.** The value was “recovered promptly”.

**Q.** What about the “clinical course of influenza pneumonia” value ([8]; human, in vivo) of the same compound?
**A.** The value was “Improvement was steady and without complications”.

**Q.** What about the status at follow-up ([8]; one month later) of the same compound?
**A.** Its status at follow-up is “well, having recovered from both myocardial infarction and influenzal pneumonia”.

**Q.** What about the “hospital day of discharge” value ([8]; person, […]) of the same compound?
**A.** Its value is “fourteenth hospital day”.

**Q.** And the “rise in antibody titers to H3N2 virus” value [9]?
**A.** Its value is “no rise in titers”.

**Q.** What about the “aerosol concentration of ribavirin” value ([10]; Example 2, 60% oxygen/40% air, 10 liters per minute) of the same compound?
**A.** The value was 180 µg/L.

**Q.** And the estimated retention factor ([10]; human, in vivo)?
**A.** The estimated retention factor was 60%.

**Q.** And the “ribavirin retained per hour” value ([10]; human, in vivo)?
**A.** Its value is 42 mg per hour.

**Q.** What about the “ribavirin retained, total” value ([10]; human, in vivo) of the same compound?
**A.** Its value is “about 2.5 grams”.

**Q.** What about the defervescence ([11]; in vivo) of the same compound?
**A.** Its defervescence is “significantly more rapid defervescence”.

**Q.** And the “disappearance of systemic illness” value ([11]; in vivo)?
**A.** Its value is “significantly more rapid defervescence, disappearance of systemic illness”.

**Q.** And the “reduction of virus shedding in nasal secretions” value ([11]; in vivo)?
**A.** Its value is “reduction of virus shedding in nasal secretions”.

**Q.** And the “effectiveness in treatment of influenza B virus infection” value ([11]; randomized, controlled study, FIG. 3 arrangement)?
**A.** Its value is “effective”.

**Q.** What about the “results of 50 μg/ml tests versus pre-treatment control specimens” value ([12]; 50 μg/ml in nasal wash) of the same compound?
**A.** Its value is “nearly identical with pre-treatment control specimens”.

**Q.** What about the “inhibition of virus growth” value ([12]; 1:10 dilution, 500 μg/ml only) of the same compound?
**A.** The value was “inhibited virus growth”.

**Q.** And the “effect of heat on ribavirin (heated versus unheated material in virus titration)” value ([12]; 65° C. for one-half hour versus room temperature, 50, 100, 500 μg/ml)?
**A.** Its value is “nearly identical results”.

**Q.** And the “inhibition of virus growth” value ([12]; H1N1, 50 ug/mL)?
**A.** The value was “no inhibitory activity”.

**Q.** What about the “inhibition of virus growth” value ([12]; higher dilutions) of the same compound?
**A.** Its value is “no drug effect was detected”.

**Q.** And the “inhibition of virus growth” value ([12]; undiluted specimens, 100 μg/ml and 500 μg/ml)?
**A.** The value was “Some inhibition of virus growth”.

**Q.** What about the “ribavirin in post-treatment nasal wash specimens” value [13] of the same compound?
**A.** The value was “no significant amount of ribavirin was present”.

**Q.** What about the “virus growth in post-treatment versus pre-treatment nasal wash specimens” value ([13]; all dilutions) of the same compound?
**A.** Its value is “almost identical virus growth”.

**Q.** And the “therapeutic effect when treatment delayed” value [4]?
**A.** Its value is “substantial therapeutic effect”.

**Q.** And the “therapeutic activity in influenza” value [14]?
**A.** Its value is “has therapeutic activity”.

**Q.** What about the Mean retention ([15]; Day 0) of the same compound?
**A.** The Mean retention was 52 mg/h.

**Q.** And the Mean retention ([15]; Day 1)?
**A.** The Mean retention was 50 mg/h.

**Q.** And the Mean retention ([15]; Day 2)?
**A.** Its Mean retention is 49.3 mg/h.

**Q.** What about the retained fraction ([15]; human, in vivo) of the same compound?
**A.** Its retained fraction is 0.7.

**Q.** And the Mean retention ([15]; total)?
**A.** The Mean retention was 51 mg/h.

Read-outs that look alike come from different tables or passages of the source.
